From the supplement of paper PMC5919970
Counter-ions that a name gives are not always drawn. The full ranking holds about 2,000 compounds; the median of “fractional viability relative to vehicle” is about 0.92, and the lowest 2% start at about 0.11. This is one part of the list.

Test system: TYKNU
Assay: fractional viability relative to vehicle; TYKNU is a high-grade serous ovarian cancer line; higher = less growth inhibition
Conditions: 72 h, genotype: OPA1 knockout (sgOPA1 #2)
Outline: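 TYKNU control cells or lentiCRISPRv2 knockout derivatives were plated at 500 cells per well in duplicate into drug-stamped 384-well plates holding a ~2100-compound library at 2 or 10 μM. Culture was in RPMI 1640 with 10% FBS at 37 °C in 5% CO2, with 72 h of drug treatment. Viability was measured by Cell Titer Glo luminescence, and the averaged duplicate treatment wells were normalised to duplicate control wells at the same plate position.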

COC(=O)C[C@H](NC(=O)[C@H](C)NC(=O)[C@@H](NC(=O)OCc1ccccc1)C(C)C)C(=O)CF
fractional viability (2uM): 1.03 | fractional viability (10uM): 1.01

CC(=O)Nc1ccccc1 [Acetanilide]
fractional viability (2uM): 0.946 | fractional viability (10uM): 0.905

O=C(/C=C/c1ccc2ccccc2n1)c1ccncc1
fractional viability (2uM): 0.472 | fractional viability (10uM): 0.11

Cc1cc(C(N)=O)ccc1-n1c(CCC(=O)O)ccc1-c1ccc(-n2ccnc2)cc1
fractional viability (2uM): 0.877 | fractional viability (10uM): 0.84

Clc1ccc(NN=C(c2ccccc2)c2ccccn2)nc1
fractional viability (2uM): 0.229 | fractional viability (10uM): 0.0582

C[N+]1(C)[C@@H]2C[C@@H](OC(=O)C(O)(c3cccs3)c3cccs3)C[C@H]1[C@@H]1O[C@@H]12 [Tiotropium Bromide hydrate]
fractional viability (2uM): 0.97 | fractional viability (10uM): 1.05

CC(C(=O)O)c1ccc2c(c1)Cc1cccnc1O2 (stereo unspecified) [Pranoprofen]
fractional viability (2uM): 0.95 | fractional viability (10uM): 0.962

O=C(N/N=C/c1cc(O)c(O)cc1O)c1cc2ccccc2cc1O [Dyngo-4a]
fractional viability (2uM): 1.04 | fractional viability (10uM): 1.16

C[N+]1(C)[C@@H]2CC[C@H]1C[C@@H](OC(=O)C(O)c1ccccc1)C2 (stereo partly specified) [Homatropine Methylbromide]
fractional viability (2uM): 1.05 | fractional viability (10uM): 0.925

COC(c1ccccc1)(c1ccccc1)[C@H](Oc1nc(C)cc(C)n1)C(=O)O [Ambrisentan]
fractional viability (2uM): 1.36 | fractional viability (10uM): 1.09

COC(=O)C1=C(C)NC(C)=C(C(=O)OCCN2CCN(C(c3ccccc3)c3ccccc3)CC2)C1c1cccc([N+](=O)[O-])c1 (stereo unspecified) [Manidipine]
fractional viability (2uM): 1.13 | fractional viability (10uM): 0.583

COC(=O)C1=C(C)NC(C)=C(C(=O)OCCN2CCN(C(c3ccccc3)c3ccccc3)CC2)C1c1cccc([N+](=O)[O-])c1 (stereo unspecified) [Manidipine 2HCl]
fractional viability (2uM): 1.05 | fractional viability (10uM): 0.669

CC(C)N(C[C@H]1O[C@@H](n2cnc3c(N)ncnc32)[C@H](O)[C@@H]1O)[C@H]1C[C@@H](CCc2nc3cc(C(C)(C)C)ccc3[nH]2)C1
fractional viability (2uM): 0.944 | fractional viability (10uM): 0.718

CC(C)OC(=O)[C@H](C)N[P@](=O)(OC[C@H]1O[C@@H](n2ccc(=O)[nH]c2=O)[C@](C)(F)[C@@H]1O)Oc1ccccc1 [Sofosbuvir (PSI-7977, GS-7977)]
fractional viability (2uM): 0.955 | fractional viability (10uM): 1.04

Nc1nc2c(ncn2[C@@H]2O[C@H](CO)[C@@H](O)[C@H]2O)c(=O)[nH]1 [Guanosine]
fractional viability (2uM): 0.462 | fractional viability (10uM): 0.571

CC1(C)S[C@@H]2[C@H](NC(=O)[C@H](NC(=O)N3CCNC3=O)c3ccccc3)C(=O)N2[C@H]1C(=O)O [Azlocillin sodium salt]
fractional viability (2uM): 0.997 | fractional viability (10uM): 1.01

CCn1c2ccccc2c2cc(Nc3ccnc(NCCCN4CCOCC4)n3)ccc21
fractional viability (2uM): 0.976 | fractional viability (10uM): 0.169

O=C1[C@H](Cc2ccc(O)cc2)N2C(=O)CCN(C(=O)NCc3ccccc3)[C@H]2CN1Cc1cccc2ccccc12
fractional viability (2uM): 0.962 | fractional viability (10uM): 0.449

CC1CC(OC(=O)C(O)c2ccccc2)CC(C)(C)C1 (stereo unspecified) [Cyclandelate]
fractional viability (2uM): 0.868 | fractional viability (10uM): 0.791

O=C(O)c1cccnc1Nc1cccc(C(F)(F)F)c1 [Niflumic acid]
fractional viability (2uM): 1.05 | fractional viability (10uM): 0.835

Cc1oncc1C(=O)Nc1ccc(C(F)(F)F)cc1 [Leflunomide]
fractional viability (2uM): 0.905 | fractional viability (10uM): 0.685

CCOC(=O)[C@H](CCc1ccccc1)N[C@@H](C)C(=O)N1Cc2ccccc2C[C@H]1C(=O)O [Quinapril HCl]
fractional viability (2uM): 0.865 | fractional viability (10uM): 0.922

CC(CCc1ccccc1)NCC(O)c1ccc(O)c(C(N)=O)c1 (stereo unspecified) [Labetalol HCl]
fractional viability (2uM): 1.03 | fractional viability (10uM): 0.883

Cn1cc(-c2ccc3ncc(Cc4ccc5ncccc5c4)n3n2)cn1
fractional viability (2uM): 1.09 | fractional viability (10uM): 1.16

Cc1cc(NC(=O)Nc2ccc(N(C)C)cc2)c2cc(F)cc(F)c2n1
fractional viability (2uM): 1.08 | fractional viability (10uM): 0.956

Cc1onc(-c2c(Cl)cccc2Cl)c1C(=O)N[C@@H]1C(=O)N2[C@@H]1SC(C)(C)[C@@H]2C(=O)O [Dicloxacillin Sodium]
fractional viability (2uM): 1.03 | fractional viability (10uM): 0.986

CN(C)/N=N/c1[nH]cnc1C(N)=O [Dacarbazine]
fractional viability (2uM): 1.16 | fractional viability (10uM): 1.48

CC1C(=O)OC2C(O)C34C5CC(C(C)(C)C)C36C(OC(=O)C6O)OC4(C(=O)O5)C12O (stereo unspecified) [Ginkgolide B]
fractional viability (2uM): 0.99 | fractional viability (10uM): 1.12

CCCSc1nc(N[C@@H]2C[C@H]2c2ccc(F)c(F)c2)c2nnn([C@@H]3C[C@H](OCCO)[C@@H](O)[C@H]3O)c2n1 [Ticagrelor]
fractional viability (2uM): 1.28 | fractional viability (10uM): 1.08

C=CC(=O)Nc1cccc(Nc2nc(Nc3ccc(Oc4ccnc(C(=O)NC)c4)cc3)ncc2F)c1
fractional viability (2uM): 1.12 | fractional viability (10uM): 0.311

C=C1C[C@@]2(O)O[C@@]3(C[C@H]2C(C)C)[C@@H](C)CC[C@@H]13 [Curcumol]
fractional viability (2uM): 1.12 | fractional viability (10uM): 1.1

O=C(O)COCCN1CCN(C(c2ccccc2)c2ccc(Cl)cc2)CC1 (stereo unspecified) [Cetirizine DiHCl]
fractional viability (2uM): 1.44 | fractional viability (10uM): 1.02

Cn1cc(-c2cnn3c(N)c(Br)c([C@@H]4CCCNC4)nc23)cn1
fractional viability (2uM): 0.571 | fractional viability (10uM): 0.814

N[C@H]1C[C@@H]1c1ccc(-c2cccc(O)c2)cc1
fractional viability (2uM): 1.18 | fractional viability (10uM): 0.857

CC(C)c1cc(-c2n[nH]c(=O)n2-c2ccc3c(ccn3C)c2)c(O)cc1O [Ganetespib (STA-9090)]
fractional viability (2uM): 0.683 | fractional viability (10uM): 0.535

CC(=O)O[C@]1(C(C)=O)CC[C@H]2[C@@H]3C=C(Cl)C4=CC(=O)[C@@H]5C[C@@H]5[C@]4(C)[C@H]3CC[C@@]21C [Cyproterone Acetate]
fractional viability (2uM): 1.03 | fractional viability (10uM): 0.956

COc1ccc(-c2ccc3ncc4c(c3c2)n(-c2ccc(N3CCNCC3)c(C(F)(F)F)c2)c(=O)n4C)cn1
fractional viability (2uM): 0.111 | fractional viability (10uM): 0.0546

COc1cc2nc(N(C)CCCNC(=O)C3CCCO3)nc(N)c2cc1OC (stereo unspecified) [Alfuzosin HCl]
fractional viability (2uM): 1.13 | fractional viability (10uM): 0.809

O=C(O)/C=C/c1ccc(O)c(O)c1 [Caffeic Acid]
fractional viability (2uM): 0.956 | fractional viability (10uM): 0.889

CC1(C)CC(=O)c2c(C(F)(F)F)nn(-c3ccc(C(N)=O)c(N[C@H]4CC[C@H](O)CC4)c3)c2C1
fractional viability (2uM): 0.668 | fractional viability (10uM): 0.574

CCCCc1nc2cc(/C=C/C(=O)NO)ccc2n1CCN(CC)CC [Pracinostat (SB939)]
fractional viability (2uM): 0.301 | fractional viability (10uM): 0.172

N#CSc1cc(SC#N)c(N)nc1N
fractional viability (2uM): 0.754 | fractional viability (10uM): 0.24

CC(=O)Nc1nc2c(Oc3cc(-c4ccc(C(F)(F)F)cc4)ncn3)cccc2s1
fractional viability (2uM): 0.977 | fractional viability (10uM): 1.16

N[C@@H](Cc1c[nH]c2ccc(O)cc12)C(=O)O [5-hydroxytryptophan (5-HTP)]
fractional viability (2uM): 1.06 | fractional viability (10uM): 0.895

CC(C)n1nc(-c2ccc3oc(N)nc3c2)c2c(N)ncnc21
fractional viability (2uM): 0.393 | fractional viability (10uM): 0.333

O=C(O)c1cc(C(F)(F)F)ccc1N1CC[C@H](OCc2ccccn2)C1
fractional viability (2uM): 0.855 | fractional viability (10uM): 0.787

N=C(N)Nc1ccc(C(=O)Oc2ccc3cc(C(=N)N)ccc3c2)cc1 [Nafamostat Mesylate]
fractional viability (2uM): 1.13 | fractional viability (10uM): 1.11

NC(=O)c1nc(F)cnc1O [Favipiravir (T-705)]
fractional viability (2uM): 0.744 | fractional viability (10uM): 0.765

O=C(NO)c1cccc(C(=O)NCCc2ccccc2)c1
fractional viability (2uM): 0.926 | fractional viability (10uM): 0.933

C[C@]12CC[C@H](O)CC1=CC[C@@H]1[C@@H]2CC[C@]2(C)C(n3cnc4ccccc43)=CC[C@@H]12 [Galeterone]
fractional viability (2uM): 0.858 | fractional viability (10uM): 0.864

CC1=C(/C=C/C(C)=C/C=C/C(C)=C/C(=O)O)C(C)(C)CCC1 [Tretinoin]
fractional viability (2uM): 0.691 | fractional viability (10uM): 0.801

CC(=O)Oc1ccccc1C(=O)O [Aspirin]
fractional viability (2uM): 0.917 | fractional viability (10uM): 1.09

CNS(=O)(=O)CCc1ccc2[nH]cc(C3CCN(C)CC3)c2c1 [Naratriptan]
fractional viability (2uM): 1.16 | fractional viability (10uM): 0.985

COc1ccc2ccc(=O)oc2c1CC=C(C)C [Osthole]
fractional viability (2uM): 0.99 | fractional viability (10uM): 1.05

O=C(Nc1nc2cccc(-c3ccc(CN4CCS(=O)(=O)CC4)cc3)n2n1)C1CC1 [Filgotinib (GLPG0634)]
fractional viability (2uM): 0.887 | fractional viability (10uM): 0.479

N=C(N)NS(=O)(=O)c1ccc(N)cc1 [Sulfaguanidine]
fractional viability (2uM): 0.966 | fractional viability (10uM): 0.96

CC1(C)[C@H](C(=O)O)N2C(=O)C[C@H]2S1(=O)=O [Sulbactam sodium]
fractional viability (2uM): 1.1 | fractional viability (10uM): 0.999

CC1(C)[C@H](C(=O)O)N2C(=O)C[C@H]2S1(=O)=O [Sulbactam]
fractional viability (2uM): 1.08 | fractional viability (10uM): 0.954

Cc1ncc(CO)c(CO)c1O [Pyridoxine HCl]
fractional viability (2uM): 0.902 | fractional viability (10uM): 1.02

O=C(O)c1ccc(-c2c[nH]c3ncc(-c4ccccc4)cc23)cc1C1CCCC1
fractional viability (2uM): 0.98 | fractional viability (10uM): 1.11

C=CC(=O)Nc1cc(Nc2nccc(-c3c[nH]c4ccccc34)n2)c(OC)cc1N(C)CCN(C)C
fractional viability (2uM): 0.542 | fractional viability (10uM): 0.0815

Cc1ccc(NCCCc2ccccc2)c(N)c1
fractional viability (2uM): 0.805 | fractional viability (10uM): 1.03

C=CC(=O)Nc1cc(Nc2nccc(-c3cn(C)c4ccccc34)n2)c(OC)cc1N(C)CCN(C)C
fractional viability (2uM): 0.766 | fractional viability (10uM): 0.0725

C#Cc1cccc(Nc2ncnc3cc4c(cc23)OCCOCCOCCO4)c1 [Icotinib]
fractional viability (2uM): 1.12 | fractional viability (10uM): 1.3

CC(C)c1ccc(NC(=O)Cn2cnc3c2c(=O)n(C)c(=O)n3C)cc1
fractional viability (2uM): 0.962 | fractional viability (10uM): 0.898

C[C@H](NC(=O)/C(C#N)=C/c1cccc(Br)n1)c1ccccc1
fractional viability (2uM): 0.867 | fractional viability (10uM): 0.0926

CCNC(=O)c1[nH]nc(-c2cc(Cl)c(O)cc2O)c1-c1ccc(OC)cc1
fractional viability (2uM): 0.758 | fractional viability (10uM): 0.515

C[C@]12CC[C@@H]3c4ccc(O)cc4CC[C@H]3[C@@H]1CC[C@@H]2O [Estradiol]
fractional viability (2uM): 1.16 | fractional viability (10uM): 0.962

CCCN(CCC)S(=O)(=O)c1ccc(C(=O)O)cc1 [Probenecid]
fractional viability (2uM): 1.13 | fractional viability (10uM): 0.846

CCNC(=O)Nc1ccc(-c2nc3c(c(N4CCOC[C@@H]4C)n2)CCN(C2COC2)C3)cc1
fractional viability (2uM): 0.849 | fractional viability (10uM): 0.848

CC(=O)[C@H]1CC[C@H]2[C@@H]3CCC4=CC(=O)CC[C@]4(C)[C@H]3CC[C@]12C [Progesterone]
fractional viability (2uM): 0.973 | fractional viability (10uM): 0.82

Cn1cc(CNCC2CCN(c3ncc(C(=O)NO)cn3)CC2)c2ccccc21
fractional viability (2uM): 0.224 | fractional viability (10uM): 0.19

CN(C)CC/C=C1/c2ccccc2Sc2ccc(Cl)cc21 [Chlorprothixene]
fractional viability (2uM): 1.2 | fractional viability (10uM): 0.945
